The values that follow come from the supplement of paper PMC9446081.

Molecules are shown by their SMILES. About 220 (0.56%) of roughly 39,000 compounds showed activity. This is one part of the list.
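Further: static incubation at 37 °C against the wild-type strain, values averaged over two biological replicates.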

This experiment has as its system Escherichia coli K-12 BW25113. The experiment is described as follows: relative growth (OD600 normalised to plate interquartile mean) (fraction); higher = less growth inhibition, active = 0.2 or less. The settings on record: 50 µM; LB; incubation time: overnight (16-24 h).
Consider `C[C@H]1CN([C@@H](C)CO)S(=O)(=O)c2ccc(C#CC3(O)CCCC3)cc2O[C@H]1CN(C)C(=O)Cc1cccnc1`, for which the relative growth was inactive: 0.927. The value for `C[C@H]1CN([C@@H](C)CO)C(=O)Cc2cc(NC(=O)Cn3cnnn3)ccc2O[C@H]1CN(C)S(C)(=O)=O` was inactive: 0.989. Next, `Cc1noc(C)c1NC(=O)N(C)C[C@H]1Oc2ccc(NC(=O)Nc3cccc4ccccc34)cc2C(=O)N([C@H](C)CO)C[C@@H]1C`: inactive: 1.01; `CC(C)NC(=O)Nc1cccc2c1O[C@@H](CN(C)Cc1ccc(-c3ccccc3)cc1)[C@@H](C)CN([C@@H](C)CO)C2=O`: inactive: 1.02; `CCCN(C)C[C@H]1OCCCC[C@H](C)Oc2ccc(NC(=O)C3CCCCC3)cc2C(=O)N([C@H](C)CO)C[C@H]1C`: inactive: 0.97. Next, `CN1CCN(C(=O)C[C@H]2C=C[C@@H](NC(=O)c3ccc4c(c3)OCO4)[C@H](CO)O2)CC1`: inactive: 0.998. Regarding `COc1ccc(S(=O)(=O)N(C)C[C@H]2OCc3cnnn3CCCC(=O)N([C@H](C)CO)C[C@H]2C)cc1`, the relative growth was inactive: 0.995.

For the compound `C[C@H](CO)N1C[C@H](C)[C@H](CN(C)C(=O)Nc2ccc3c(c2)OCO3)OCc2cn(nn2)CCCC1=O`, the relative growth is inactive: 1.02. The value for `C[C@H](CO)N1C[C@H](C)[C@H](CN(C)C(=O)Nc2cccc3ccccc23)Oc2c(NS(=O)(=O)c3ccc(Cl)cc3)cccc2C1=O` was inactive: 1.02; that for `CC(C)(C)[C@H]1COC(=O)[C@@H](NC(=O)OCC2c3ccccc3-c3ccccc32)CC=CC[C@H](CC(=O)N(CCO)Cc2ccccc2)C(=O)N1` was inactive: 1.01. Take `C[C@@H]1CN([C@H](C)CO)C(=O)Cc2cc(NC(=O)Nc3ccc(F)cc3)ccc2O[C@@H]1CN(C)Cc1ccc(Cl)c(Cl)c1`: the relative growth was inactive: 1.02. Next, `C[C@@H]1CN([C@@H](C)CO)S(=O)(=O)c2ccc(C#CC3CCCC3)cc2O[C@H]1CN(C)C(=O)Cc1ccncc1`: inactive: 0.967; `C[C@@H]1CCCCO[C@@H](CN(C)C(=O)NC2CCCCC2)[C@H](C)CN([C@H](C)CO)C(=O)c2cc(NC(=O)C3CCCCC3)ccc2O1`: inactive: 1.01. Regarding `C[C@H](CO)N1C[C@H](C)[C@H](CN(C)C(=O)NC2CCCCC2)Oc2c(NC(=O)c3ccc(-c4nccs4)cc3)cccc2C1=O`, the relative growth was inactive: 0.999. On to `COc1ccc(NC(=O)Nc2ccc3c(c2)C(=O)N([C@@H](C)CO)C[C@@H](C)[C@H](CN(C)C(=O)Nc2ccc(OC)cc2)OCCCC[C@@H](C)O3)cc1`, for which the relative growth was inactive: 1. The value for `C[C@@H]1CCCCO[C@@H](CN(C)Cc2ccc(C(=O)O)cc2)[C@@H](C)CN([C@@H](C)CO)C(=O)c2cc(NC(=O)c3ccccc3)ccc2O1` was inactive: 1.01; that for `C[C@H]1CN([C@@H](C)CO)S(=O)(=O)c2ccc(C#CCC3CCCC3)cc2O[C@H]1CN(C)C(=O)CN(C)C` was inactive: 0.953; that for `C[C@@H]1CN([C@@H](C)CO)C(=O)c2cc(NC(=O)c3ccccc3)ccc2O[C@@H](C)CCCCO[C@@H]1CN(C)S(=O)(=O)c1ccc(F)cc1` was inactive: 1.01. Next, `C[C@@H]1CN([C@@H](C)CO)C(=O)c2cc(NC(=O)Nc3ccc4c(c3)OCO4)ccc2O[C@H]1CN(C)Cc1ccc(-c2ccccc2)cc1`: inactive: 0.991. Next, `Cc1c(C(N)=O)nnn1-c1ccc(F)cc1`: inactive: 0.984. In the case of `Cc1ccc(S(=O)(=O)N(C)C[C@@H]2OCCCC[C@H](C)Oc3ccc(NS(=O)(=O)c4ccc(Cl)cc4)cc3C(=O)N([C@H](C)CO)C[C@@H]2C)cc1`, the relative growth was inactive: 0.996.

Regarding `O=C(NC1CCCCC1)[C@@H]1C(c2ccc(Cl)cc2)=C(S(=O)(=O)c2ccccc2)C(=O)N1Cc1ccc(-c2ccccc2)cc1`, the relative growth was inactive: 1.03.

In the case of `C[C@@H]1CN([C@@H](C)CO)C(=O)c2cc(NC(=O)Nc3cccc4ccccc34)ccc2O[C@@H](C)CCCCO[C@@H]1CN(C)Cc1ccc(C(=O)O)cc1`, the relative growth was inactive: 1.01. Next, `C[C@H](CO)N1C[C@H](C)[C@H](CN(C)Cc2ccc(Oc3ccccc3)cc2)Oc2c(NC(=O)C3CCCCC3)cccc2C1=O`: inactive: 1. The value for `CCCCN(CCCC)CC(O)c1cc(Cl)cc2c1-c1ccc(Cl)cc1C2=Cc1ccc(Cl)cc1` (stereo not drawn) was inactive: 1.15; that for `NC(=O)OCC(COC(N)=O)c1ccccc1` was inactive: 0.994; that for `Cc1nc2ccccn2c(=O)c1CCN1CCC(C(=O)c2ccc(F)cc2)CC1` was inactive: 0.874.

For the compound `Cc1ccc(S(=O)(=O)Nc2ccc3c(c2)C(=O)N([C@@H](C)CO)C[C@@H](C)[C@H](CN(C)S(C)(=O)=O)OCCCC[C@@H](C)O3)cc1`, the relative growth was inactive: 1.03. The value for `C[C@@H]1CN([C@@H](C)CO)C(=O)c2cc(NC(=O)Nc3cccc4ccccc34)ccc2O[C@@H](C)CCCCO[C@H]1CN(C)C(=O)Nc1ccc2c(c1)OCO2` was inactive: 1.06. Next, `Cc1ccc(S(=O)(=O)Nc2ccc3c(c2)C(=O)N([C@H](C)CO)C[C@@H](C)[C@@H](CN(C)Cc2ccc(C(F)(F)F)cc2)OCCCC[C@@H](C)O3)cc1`: inactive: 1.07. Consider `O=C(O)c1ccc(C(=O)O)nc1`, for which the relative growth was inactive: 0.988.

As to `CSc1nc2cc(Cl)c(Oc3cccc(Cl)c3Cl)cc2[nH]1`, the relative growth is inactive: 0.82. The value for `C[C@@H]1CN([C@@H](C)CO)C(=O)c2cc(NS(=O)(=O)c3ccc(Cl)cc3)ccc2O[C@@H](C)CCCCO[C@@H]1CN(C)S(=O)(=O)c1ccccc1` was inactive: 0.899.

As to `C[C@@H]1CCCCO[C@@H](CN(C)C(=O)NC2CCCCC2)[C@H](C)CN([C@@H](C)CO)C(=O)c2cc(NC(=O)c3ccncc3)ccc2O1`, the relative growth is inactive: 1.01. Regarding `C[C@@H]1CN([C@H](C)CO)C(=O)c2cc(NS(=O)(=O)c3ccccc3)ccc2O[C@@H](C)CCCCO[C@H]1CN(C)C(=O)Nc1ccc(C(F)(F)F)cc1`, the relative growth was inactive: 1.01. For the compound `Cc1noc(C)c1S(=O)(=O)N(C)C[C@H]1Oc2ccc(NC(=O)C3CC3)cc2CC(=O)N([C@H](C)CO)C[C@H]1C`, the relative growth was inactive: 1.

Regarding `CN(C)c1cnccn1.O=S(=O)(O)O`, the relative growth was inactive: 1.03. Take `COCCNC(=O)C[C@@H]1CC[C@@H](NS(=O)(=O)c2ccc(C)cc2)[C@H](CO)O1`: the relative growth is inactive: 1.02.
